The other results are listed elsewhere or left out.
Test system: T1, C. trachomatis L2/434/Bu expressing GFP (CTL2-GFP)
T1 construct: L2/434/Bu GFP intracellular growth in HeLa cells
Parameters: species or system HeLa; C. trachomatis total inclusion area by high-content imaging, normalised to DMSO
Conditions: total inclusion area; 28.5 h, 10 µM; inhibitor
How it was run: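 High-content images of fixed, Hoechst-stained infected cultures supply inclusion area and count (growth) plus nuclei number (viability), complementing bulk GFP/resorufin fluorescence. MIC determination is unchanged from the primary assay.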

Point of comparison: `O=c1[nH]c(/C=C/c2cc(Br)ccc2OCc2cccc3ccccc23)c([N+](=O)[O-])c(=O)[nH]1` [CBK268052], “% of control remaining” value 75.8741. Against it:
- CC1CCN(Cc2c(-c3cccnc3)[nH]c3cccnc23)CC1 [CBK281494] — higher, 88.9482
- O=c1c2c3c(sc2ncn1CC(O)CO)CCCC3 (centres unmarked) [CBK269448] — lower, 68.815
- Cc1cc(C)c(CNC(=O)N(C)C(C)c2ccncn2)cn1 (centres unmarked) [CBK307192] — higher, 90.2145
- COC(=O)CC(NC(=O)c1cccc(NC(C)=O)c1)c1cccs1 (centres unmarked) [CBK304537] — lower, 71.1361
- Cc1csc(C(Cc2ccsc2)NC(=O)C2CC3C=CC2O3)n1 (centres unmarked) [CBK285108] — higher, 86.6887
- C=Cn1cc(CN2CCCN(Cc3cccc(F)c3)CC2)c(C)n1 [CBK282594] — higher, 106.683
- O=C(Nc1cc(Cl)ccc1Cl)C1CN(S(=O)(=O)c2ccccc2)CCN1S(=O)(=O)c1ccccc1 (centres unmarked) [CBK267004] — higher, 94.8979
- O=C(Nc1ccccc1N1CCNCC1)c1cccs1 [CBK029443T] — higher, 80.1913
- Cc1ccc(S(=O)(=O)Cc2ccc(C(=O)Nc3cccc(-c4cnc5ccccc5n4)c3)cc2)cc1 [CBK268589] — higher, 108.535
- Cc1ccc2c(c1)C(C[C@H]1CN(C(=O)c3ccco3)CC[C@H]1CC(=O)O)=NCC2 [CBK289162] — higher, 96.4135
- Cn1nc(C2CCN(C(=O)c3cccc(F)c3)CC2)c2cccnc21 [CBK284898] — higher, 100.46
- c1ccc(-c2nc(N3CCOCC3)n3ccccc23)cc1 [CBK014407] — higher, 107.27
- CCc1nc2cc(NC(=O)c3cc(C4CC4)nn3C)ccc2n1C [CBK283275] — higher, 77.2603
- O=C(Nc1ccccn1)c1nccnc1-c1ccc(COc2ccccc2)cc1 [CBK050835] — higher, 93.0445
- CC1=NN(C(=O)CSCc2ccccc2)C(O)(c2ccc(Cl)cc2)C1 (centres unmarked) [CBK267136] — higher, 92.1872
- O=C1NC2=C(C(=O)N(CCN3CCCC3)C2)C(c2cccc(F)c2)N1 (centres unmarked) [CBK282365] — lower, 67.567
- COc1cccc(CCNC(=O)CCN2C(=O)CCC2=O)c1 [CBK023150] — lower, 28.1208
- Cn1cnnc1CCC(=O)NCC1CCN(c2ccccc2F)C1 (centres unmarked) [CBK307587] — lower, 58.9233
- CCc1nc2c(OCCOC)cccn2c1N(CCOC)C(C)=O [CBK147845] — higher, 117.069
- Cc1nc(S(=O)(=O)CC2CCCO2)n(CC(C)C)c1C (centres unmarked) [CBK304882] — lower, 72.7236
- COC(=O)c1cc(OC)c(OC)cc1NC(=O)C1CCC1C(=O)O (centres unmarked) [CBK057084] — higher, 105.105
- OCCc1ccc(Oc2ncc(C(F)(F)F)cc2Cl)cc1 [CBK161643] — higher, 106.475
- CC(Cc1cccs1)NC(=O)C(C)Cn1cccn1 (centres unmarked) [CBK283250] — higher, 113.19
- Cc1ccc(-c2nnc(CNC(=O)Cc3ccccc3F)o2)s1 [CBK284644] — higher, 108.603
- CS(=O)(=O)c1ccc(-c2cccc(COC3CCN(C(=O)Cc4ccc(Cl)cc4)CC3)c2)cc1 [CBK149504] — lower, 72.9157
- CC(=O)Nc1n[nH]c(SCCc2ccccc2)n1 [CBK262514] — higher, 105.094
- CC(C)(C)NC(=O)Cn1ccc2ccnc(-c3cccs3)c21 [CBK284737] — higher, 116.073
- CCC(C)NC(=O)Cn1cccc2cc(C3CCNCC3)nc1-2 (centres unmarked) [CBK284681] — higher, 100.611
- Fc1cc(Br)ccc1-c1cn(-c2ccc3[nH]ccc3c2)nn1 [CBK113146] — lower, 50.2147
- O=C(NCCN1CCOCC1)N(c1ccccc1)c1ccccc1 [CBK270057] — higher, 109.569
- Cc1ccc2[nH]c(Cc3ccc(NC(=O)CCc4nc5ccccc5[nH]4)cc3)nc2c1 [CBK285801] — higher, 126.286
- CC(C)(C)c1ccc(S(=O)(=O)N2CCCC[C@H]2COC(=O)c2nccnc2C(=O)O)cc1 [CBK200065] — higher, 101.48
- Cn1cc(CC2CCN(Cc3ccc(Oc4cnccn4)cc3)C2)cn1 (centres unmarked) [CBK304188] — higher, 102.865
- CSCCCNC(=O)c1ccc2[nH]ccc2c1 [CBK149056] — higher, 102.221
- N[C@H](CSCc1ccccc1)C(=O)Nc1ccc([N+](=O)[O-])cc1 [CBK074824] — lower, 75.4909
- Cc1ncc([N+](=O)[O-])n1CC(=O)NC1CCCCCC1 [CBK269194] — higher, 131.58
- COc1ccccc1-c1nccnc1OCc1cccs1 [CBK106819] — higher, 78.6916
- CC(C)(C)NC(=O)Cn1cncc1-c1cnn(-c2ccccc2)c1 [CBK281697] — lower, 75.5104
- COC(=O)c1cccn2cc(CN3CCOC4CCCCC43)nc12 (centres unmarked) [CBK304949] — lower, 59.2051
- Clc1nc2ccccc2nc1N1CCNCC1 [CBK003880] — higher, 99.471
